First the molecules themselves.
T1: human IL-1R-I (human, UniProt P14778 18-332, limits assumed)
T1 construct: bought recombinant protein; also called hIL-1R-I; hIL-1RI
T1 sequence (looked up): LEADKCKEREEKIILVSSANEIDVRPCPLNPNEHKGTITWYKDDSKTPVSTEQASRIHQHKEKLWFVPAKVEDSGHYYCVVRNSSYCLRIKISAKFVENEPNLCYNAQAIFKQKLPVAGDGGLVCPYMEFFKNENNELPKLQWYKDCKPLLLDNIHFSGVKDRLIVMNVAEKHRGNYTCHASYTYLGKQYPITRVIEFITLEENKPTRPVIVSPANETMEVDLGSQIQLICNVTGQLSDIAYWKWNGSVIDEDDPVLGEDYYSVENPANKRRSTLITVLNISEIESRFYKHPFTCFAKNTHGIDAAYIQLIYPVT

B1: Z18860 (Z-ABD) (designed binder)
chain: AQHDEALEVDAKYAKETEEIQMEIFLLPNLTRKQYTAFIRKLFDDPSQSSELLSEAKKLNDSQAPKVDYVLAEAKVLANRELDKYGVSDYYKNLINNAKTVEGVKALIDEILAALPYVPG
B2: Z18966 (Z-ABD) (designed binder)
chain: B1 chain with I20V, L26R, F43L
B3: Z18967 (Z-ABD) (designed binder)
chain: B1 chain with T17I, E19V, I20V, L26H, F43L
B4: Z18861 (Z-ABD) (designed binder)
chain: B1 chain with T17V, I20V, L26A, K33R, F43L
B5: Z18922 (Z-ABD) (designed binder)
chain: B1 chain with T17I, M22L, L26R, F43L
B6: Z18893 (Z-ABD) (designed binder)
chain: B1 chain with T17I, L26G, F43L
B7: Z18923 (Z-ABD) (designed binder)
chain: B1 chain with T17I, M22Q, L26H, K33R, F43L
B8: Z18868 (Z-ABD) (designed binder)
chain: B1 chain with T17L, E19I, I20V, L26H, K33R, F43L
B9: Z18958 (Z-ABD) (designed binder)
chain: B1 chain with L26S, K33R, F43L
B10: Z18919 (Z-ABD) (designed binder)
chain: B1 chain with T17V, L26S, F43L
B11: Z18863 (Z-ABD) (designed binder)
chain: B1 chain with T17V, I20V, L26G, K33R, F43L
B12: Z18912 (Z-ABD) (designed binder)
chain: B1 chain with L26H, F43L
B13: Z18959 (Z-ABD) (designed binder)
chain: B1 chain with T17I, I20V, L26G, K33R, F43L
B14: Z18878 (Z-ABD) (designed binder)
chain: B1 chain with T17V, I20V, L26Y, F43L
B15: Z18866 (Z-ABD) (designed binder)
chain: B1 chain with T17I, L26H, F43L
B16: Z18888 (Z-ABD) (designed binder)
chain: B1 chain with T17V, E19A, L26H, F43L
B17: Z18898 (Z-ABD) (designed binder)
chain: B1 chain with T17L, E19A, L26Y, K33R, T36V, F43L
B18: Z18895 (Z-ABD) (designed binder)
chain: B1 chain with T17I, E19A, L26Y, K33R, F43L
B19: Z18952 (Z-ABD) (designed binder)
chain: B1 chain with T17V, E19Q, L26Y, K33R, F43L
B20: Z18941 (Z-ABD) (designed binder)
chain: B1 chain with T17L, E19A, I20V, L26Y, K33R, F43L
B21: Z18879 (Z-ABD) (designed binder)
chain: B1 chain with T17V, E19Y, L26R, K33R, F43L
B22: Z18948 (Z-ABD) (designed binder)
chain: B1 chain with T17I, E19A, L26Y, F43L
B23: Z18875 (Z-ABD) (designed binder)
chain: B1 chain with T17I, E19A, L26H, K33R, F43L
B24: Z18971 (Z-ABD) (designed binder)
chain: B1 chain with T17I, E19S, I20V, M22L, L26G, K33R, F43L
B25: Z18904 (Z-ABD) (designed binder)
chain: B1 chain with T17V, M22L, L26A, F43L
B26: Z18942 (Z-ABD) (designed binder)
chain: B1 chain with T17V, E19T, M22H, L26R
B27: Z18916 (Z-ABD) (designed binder)
chain: B1 chain with T17I, M22L, L26H, F43L
B28: Z18881 (Z-ABD) (designed binder)
chain: B1 chain with T17I, L26G, K33R
B29: Z18894 (Z-ABD) (designed binder)
chain: B1 chain with T17V, L26D, K33R, F43L
B30: Z18896 (Z-ABD) (designed binder)
chain: B1 chain with E19A, L26A, K33R, F43L
B31: Z18927 (Z-ABD) (designed binder)
chain: B1 chain with T17I, L26A, F43L
B32: Z18909 (Z-ABD) (designed binder)
chain: B1 chain with T17I, L26F, K33R, F43L
B33: Z18877 (Z-ABD) (designed binder)
chain: B1 chain with T17V, L26Y, F43L
B34: Z18920 (Z-ABD) (designed binder)
chain: B1 chain with L26R, K33R, F43L
B35: Z18956 (Z-ABD) (designed binder)
chain: B1 chain with T17I, E19A, I20V, M22I, L26R, F43L
B36: Z18886 (Z-ABD) (designed binder)
chain: B1 chain with T17I, E19A, L26G, F43L
B37: Z18917 (Z-ABD) (designed binder)
chain: B1 chain with T17I, M22F, F25Y, L26D
B38: Z18910 (Z-ABD) (designed binder)
chain: B1 chain with T17I, E19A, L26R, F43L
B39: Z18882 (Z-ABD) (designed binder)
chain: B1 chain with T17V, I20V, L26D, K33R, F43L
B40: Z18876 (Z-ABD) (designed binder)
chain: B1 chain with T17I, L26Y, K33R, T36V, F43L
B41: Z18908 (Z-ABD) (designed binder)
chain: B1 chain with T17I, M22L, L26A, F43L
B42: Z18874 (Z-ABD) (designed binder)
chain: B1 chain with T17L, E19A, L26H, K33R, F43L
B43: Z18938 (Z-ABD) (designed binder)
chain: B1 chain with T17I, E19Q, L26A, F43L
B44: Z18871 (Z-ABD) (designed binder)
chain: B1 chain with T17V, L26H
B45: Z18873 (Z-ABD) (designed binder)
chain: B1 chain with T17L, I20V, L26Y, K33R, F43L
B46: Z18890 (Z-ABD) (designed binder)
chain: B1 chain with T17L, E19K, I20V, L26G, K33R, F43L
B47: Z18870 (Z-ABD) (designed binder)
chain: B1 chain with T17I, E19A, L26G, K33R
B48: Z18885 (Z-ABD) (designed binder)
chain: B1 chain with T17V, L26Y, K33R
B49: Z18925 (Z-ABD) (designed binder)
chain: B1 chain with E19D, M22Q, L26Q, K33R, F43L
B50: Z18887 (Z-ABD) (designed binder)
chain: B1 chain with T17V, E19V, L26R, K33R, F43L
B51: Z18872 (Z-ABD) (designed binder)
chain: B1 chain with T17I, E19A, I20V, L26Y, K33R, F43L
B52: Z18889 (Z-ABD) (designed binder)
chain: B1 chain with T17V, I20V, L26R, K33R, F43L
B53: Z18968 (Z-ABD) (designed binder)
chain: B1 chain with T17L, I20V, M22L, L26R, K33R, R40I, F43L
B54: Z18884 (Z-ABD) (designed binder)
chain: B1 chain with T17V, E19I, L26G, K33R, F43L
B55: Z18911 (Z-ABD) (designed binder)
chain: B1 chain with T17V, E19A, L26A, F43L

The values that follow come from patent publication US20250066451A1 (SWEDISH ORPHAN BIOVITRUM AB PUBL, published 2025).

Changes are numbered by the printed parent chain.

In this experiment the target is T1, human IL-1R-I. Kind of experiment: SPR screening; Z-ABD captured on anti-ABD, 100 nM hIL-1R-I injected.
B1: the affinity, expressed as Kd, was 6.2 nM.
In the case of B2 it was 2.9 nM.
In turn, B3 had a Kd of 3.2 nM.
For the molecule B4, the equilibrium dissociation constant (Kd) amounted to 3.3 nM.
Consider B5, for which the Kd turned out to be 4.9 nM.
Turning to B6, the Kd was 2.1 nM.
For the molecule B7, the Kd was 9 nM.
Molecule B8 registered a Kd of 2.7 nM.
Regarding B9, the Kd turned out to be 2.8 nM.
In turn, B10 gave a Kd of 2.8 nM.
In the case of B11 it was 2.4 nM; in that of B12, 3.6 nM; in that of B13, 2.9 nM.
In the case of B14 it was 3.8 nM; in that of B15, 2.7 nM.
For B16, the Kd was determined as 2.6 nM. The Kd values of the last two molecules are within 1.5-fold of each other.
In turn, B17 registered a Kd of 2.5 nM. The Kd values of the last two molecules are within 1.5-fold of each other.
B18 had a Kd of 2.6 nM.
Molecule B19 registered a Kd of 3 nM.
B20 came in with a Kd of 3.3 nM.
Consider B21, for which the Kd was 6.2 nM. Compared with the last molecule, the Kd is about 1.9-fold higher.
The molecule B22 returned a Kd of 4.3 nM.
B23 came in with a Kd of 2.7 nM.
Molecule B24 showed a Kd of 5.5 nM.
Molecule B25 showed a dissociation constant (Kd) of 3.4 nM.
In turn, B26 displayed a Kd of 15 nM. This Kd lies about 4.4-fold higher than the previous one.
In turn, B27 showed a Kd of 4.1 nM.
With B28, the Kd stood at 3.2 nM.
As for B29, the Kd stood at 2.5 nM.
In the case of B30 it was 3.5 nM; in that of B31, 3.4 nM; in that of B32, 2.7 nM.
The molecule B33 came in with a Kd of 2.7 nM.
B34: the Kd came to 3.2 nM.
B35 showed a Kd of 14 nM.
In the case of B36 it was 3.9 nM; in that of B37, 7.1 nM.
The molecule B38 came in with a Kd of 3.1 nM. This Kd lies about 2.3-fold lower than the previous one.
On to B39, for which the Kd was found to be 2.6 nM.
The value for B40 was 3.7 nM; that for B41 was 3.6 nM; that for B42 was 2.3 nM.
Take B43: the Kd is 4.5 nM.
As to B44, the Kd came to 3.5 nM.
In the case of B45 it was 3.1 nM; in that of B46, 3.1 nM; in that of B47, 3 nM.
Regarding B48, the Kd is 3.9 nM.
Molecule B49 showed a Kd of 11 nM.
Molecule B50 came in with a Kd of 2.9 nM.
On to B51, for which the Kd was found to be 2.6 nM.
The value for B52 was 3.4 nM; that for B53 was 2.4 nM; that for B54 was 2.7 nM.
B55 displayed a Kd of 2.8 nM.
